Measured values: the supplement of paper PMC3334620
Whole data set: some 33,000 sequences, median “E-score (-0.5 to 0.5)” near -0.021, cut for the highest 2% near 0.32. This is one part of the list.

target: T1, Zap1 (UniProt P47043); assay: PBM E-score (8-mer binding enrichment) (E-score (-0.5 to 0.5)); higher = stronger / more preferred TF binding; most listed sequences are background and not binding sites; conditions: protein concentration: 200 nM; construct: GST-full length
T1 sequence: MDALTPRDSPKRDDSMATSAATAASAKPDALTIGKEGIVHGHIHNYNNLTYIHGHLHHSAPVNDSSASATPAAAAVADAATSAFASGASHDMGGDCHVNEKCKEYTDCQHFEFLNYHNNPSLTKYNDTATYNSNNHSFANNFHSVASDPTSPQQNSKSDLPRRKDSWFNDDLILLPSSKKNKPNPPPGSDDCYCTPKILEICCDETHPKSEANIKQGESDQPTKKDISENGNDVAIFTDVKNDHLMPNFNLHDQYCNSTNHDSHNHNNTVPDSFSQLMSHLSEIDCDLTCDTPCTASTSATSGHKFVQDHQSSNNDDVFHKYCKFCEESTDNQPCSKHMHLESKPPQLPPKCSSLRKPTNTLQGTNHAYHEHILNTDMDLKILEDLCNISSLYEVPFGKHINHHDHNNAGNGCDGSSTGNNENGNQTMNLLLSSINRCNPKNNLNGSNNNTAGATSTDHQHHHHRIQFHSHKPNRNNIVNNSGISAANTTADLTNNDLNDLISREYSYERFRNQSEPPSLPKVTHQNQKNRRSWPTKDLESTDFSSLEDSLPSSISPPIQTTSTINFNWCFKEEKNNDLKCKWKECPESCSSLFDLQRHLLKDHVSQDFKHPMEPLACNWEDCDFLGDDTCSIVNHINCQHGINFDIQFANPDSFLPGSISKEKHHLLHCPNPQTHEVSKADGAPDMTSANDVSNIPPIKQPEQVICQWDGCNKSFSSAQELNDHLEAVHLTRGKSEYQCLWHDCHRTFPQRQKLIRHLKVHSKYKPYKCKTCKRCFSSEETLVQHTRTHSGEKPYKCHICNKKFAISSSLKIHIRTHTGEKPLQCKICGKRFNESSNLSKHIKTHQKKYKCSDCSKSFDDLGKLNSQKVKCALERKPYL
How it was run: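 Masliner-normalised scans of fluorescent anti-GST signal were the basis for scoring. That signal came from GST-tagged yeast transcription factors applied at about 100-200 nM to double-stranded universal all-10-mer Agilent arrays on fresh or once-stripped slides. Each ungapped eight-base word, pooled with its reverse complement, received an E-score from the Universal PBM Analysis Suite.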

Sequence	PBM E-score
CATTCCTC	-0.103
AAGCTACA	-0.226
CATCACGC	-0.017
ATGCTTAA	-0.028
AATTGTAA	0.0936
AGCCCAGC	-0.243
ACAGGGAA	-0.0781
GTCCACGA	0.041
TAGCCAGA	-0.00683
AGCTAATC	0.0224
GGAGCTAC	-0.178
ACGCTCGC	-0.088
AGAGTCTG	-0.259
TGTTACAA	0.098
GTACTCGA	-0.0599
CATATGAA	0.108
GAGATCTA	-0.114
CCCAAGCG	-0.113
AACTTGTA	0.0256
GCCCACCA	-0.217
ATTAACAC	0.172
CTTTGGTA	-0.0191
AGGAACGG	0.00118
CATAACAG	-0.0694
CTTAAAGA	0.101

Sequence	PBM E-score
GAGTGTCA	0.035
AGAGTGCA	-0.105
TAGACGAA	0.0459
AAGAACCC	0.306
CCCAATAC	-0.00651
ACCATAAA	0.384
GGAGTGTA	-0.0955
ATTTACCC	0.155
ACGATGTA	-0.25
CAGATTAC	0.0563
CAGGGTCC	0.14
CGATGATA	-0.0676
CGAGCGTA	-0.102
CATAGCTC	-0.186
ACAGTGGA	-0.0134
CTTAATAC	0.207
ACCTCTCC	0.0281
CGTCTCAG	0.0562
AAAGATCG	-0.0307
GAAGGGAA	-0.194
AACTCGAG	0.0111
GAATTTGA	-0.0284
GAGAATCC	-0.00686
TAAGACTA	-0.0191
CAGGGAAG	-0.0974

Sequence	PBM E-score
CGGAGAAC	-0.14
TACGCTCA	-0.0116
GCGTCCAA	-0.112
GTGATAAA	0.0529
TAGCACAA	0.0953
TGGCGAAA	0.078
CTTCAATA	0.0646
AACAGTGA	-0.163
GTACAGTA	-0.0523
CCCCCGCA	-0.206
AGTCACAG	0.0255
TTACGCAA	0.224
CAGAAAGG	0.234
CTGTGTTC	0.0619
AACGCATA	-0.0892
CGATGGCA	-0.128
CGCAATAG	0.0708
ACCGACGG	0.00095
CAATACCC	0.214
TCCGAAGA	-0.115
CCGTGACA	-0.136
AGGCTTTG	-0.027
CGGGTGGC	0.0562
GATCTGTA	-0.0107
AGGTCATG	0.416

Sequence	PBM E-score
GTATCTGA	0.0899
AGGTCAGA	0.149
ATGCTCGG	-0.237
TTAGTCAA	-0.0492
CTCCCGGC	-0.0914
CGTTGTCA	-0.0447
AAACGTCT	-0.0196
AAGTGGAT	0.002
CCGAGGCC	-0.0616
CAACTGTC	-0.0568
ATACTTCC	0.0042
GACTGGGC	-0.306
ATACGAGA	-0.0901
ACGTGGGG	-0.263
GAATACTC	0.0943
GCGAGGTA	0.229
CGATCTGC	-0.114
GTCGATGA	-0.149
CCTTGTCC	-0.106
TACGTGGA	-0.194
ACAGGGGA	-0.194
AGTCAGCA	-0.156
CGTTGAAG	-0.0128
AGCTTAAT	0.13
CTCTGCTC	-0.281

Sequence	PBM E-score
CCTCTAGA	0.167
GCGAGTAC	0.014
ATACTTGC	-0.0932
AAATGAAG	0.0973
ACTGCTGA	0.0194
AACGCGCA	-0.101
ACAAACCA	0.105
ATACCCTG	0.306
AGATCAAA	-0.0021
AGAATAAG	-0.0373
CCTGTAGA	0.104
GCCATCTA	-0.024
CTAAGCCA	-0.198
ATAATAAC	0.287
ACTCCACG	-0.269
CTGAGTAA	0.145
AGTCCCAG	-0.213
AAAAAATT	0.0563
CCGTTAAC	0.102
GGGCCGCA	-0.127
AGTTGGAC	0.0735
CTCCTTGA	-0.253
CACCAGGG	0.00214
ACCAAGCT	0.0599
GGCAATCA	-0.0629

Sequence	PBM E-score
CATGTTGG	-0.0429
ACGAGTAT	-0.0933
GCGGAGGA	-0.34
AAACGGAA	0.127
CCAGACGC	-0.0692
CAACTAAC	0.21
ACGCGTGG	0.141
CCTATGGA	-0.0255
CCTGGTGC	-0.101
AAGGTGGG	0.24
AACCTAAC	0.229
TGCCCAAA	-0.0925
CCAGATAA	0.165
GGCATTTA	-0.273
AGCACTAC	-0.0779
ATGAGCTG	-0.13
ATGTGTAC	0.0297
AAGTGCCT	-0.222
ACCCTGCG	0.422
ATTCGCCC	-0.122
CAACCGGC	0.135
ATTAGCTA	0.027
ATAGCGCC	-0.157
CAAGCAGA	0.0449
AGTACGAG	0.0684

Sequence	PBM E-score
CGACTTAG	-0.0772
AACGGCGT	-0.114
GCTAACTA	0.138
GCCCCTTA	-0.0926
ACTCTTCG	-0.153
GCCCTAAA	-0.194
CTACTGTC	-0.25
GAGTTTAC	-0.0243
ACTCCAGT	-0.099
ACCAAACG	0.0901
ACTAACAT	0.119
GAGGTCCC	0.174
TACTAGTA	0.145
TGCGCACA	-0.037
AATTATCG	0.176
ATATTACC	0.251
AATCGGGG	0.0703
GAGTTCGA	0.0349
CGCGGGGC	-0.111
GCTAGCAA	-0.105
AGAAGAAA	-0.0343
AATATAGC	-0.0221
